The whole screen tested about 150,000 compounds, of which about 540 (0.36%) showed an effect of 50% or more. Some of the results follow.

This assay deals with Plasmodium falciparum. Description: Primary screen in NF54 nanoGlo assay, in single point, at 2uM, 72h; a lower Z score goes with more inhibition. It is filed as functional, Erythrocyte. The following applies: timepoint 72 hour.
As a reminder, the % Inhibition is the relative decrease from the control value, in per cent. As for `Cn1cnnc1Cn1c(=O)c2ccccc2c2ccccc21`, the “% Inhibition” value is on record as -7% and the Z score is given as 1.15.
The corresponding values for `COc1ccc(C(=O)N2CC(=O)N3CCc4ccccc4[C@@H]3C2)cc1OC` are -11% and 1.54.
For `Cc1cccc(CN(Cc2ccccn2)C(=O)Cn2c(C)cc(O)cc2=O)c1`, the “% Inhibition” value was 35% and the Z score is given as -0.56.
In the case of `CC[C@H](O)CN(CCN1CCOCC1)c1ccccc1`, the “% Inhibition” value is -1% and the Z score came out at 0.11.
The corresponding values for `COc1ccc(NC(=O)CC(=O)N(C)C[C@H](O)CO)c(OC)c1` are 1% and -0.15.
Regarding `CC(C)NC(=O)NCC(C)(C)c1ccsc1`, the “% Inhibition” value is given as -12% and the Z score is on record as 2.23.
With `CNC(=O)[C@H]1CN(Cc2cccnc2)C[C@@H]1NC(=O)c1cc(C)on1`, the “% Inhibition” value was -1% and the Z score was determined as 0.1.
For `COCCC1(C(=O)NC[C@@H]2OCCc3sccc32)CCCC1`, the “% Inhibition” value was -13% and the Z score is reported as 1.84.
Turning to `O=C(c1nn(-c2ccc(Cl)cc2Cl)c2c1CCC2)N1CC[C@@](F)(CO)C1`, the “% Inhibition” value is given as -2% and the Z score was determined as 0.31.
As to `CC(=O)Nc1ccc2nc(NCc3ccc(N(C)C)nc3)sc2c1`, the “% Inhibition” value is -12% and the Z score was found to be 1.79.
Take `Cc1cnn(CC(=O)NCc2ccc3c(n2)CCCC3)c1`: the “% Inhibition” value was determined as 3% and the Z score was -0.32.
`Cc1c(C(=O)NC[C@H]2C(C)(C)C2(F)F)c2ccccc2[nH]c1=O`: the “% Inhibition” value was 0% and the Z score was found to be 0.01.
The corresponding values for `O=C(CCOc1ccccc1)NCC1(CO)CCOCC1` are 0% and 0.05.
`CC(C)(C)N(CC(N)=O)Cc1cnc(C2CCCC2)s1`: the “% Inhibition” value was -1% and the Z score was 0.18.
The corresponding values for `CCN1CCN(c2nc3c(s2)CN(Cc2ccccn2)CC3)CC1` are 5% and -1.07.
With `Cc1cccnc1C[C@H](C)NC(=O)c1ccc2oc(-c3cccc(F)c3)nc2c1`, the “% Inhibition” value is -14% and the Z score is recorded as 1.32.
As to `CC(C)c1ccccc1S(=O)(=O)N1CCNC[C@@H]1C`, the “% Inhibition” value is on record as -2% and the Z score was determined as 0.3.
For `Cc1nnsc1C(=O)N1CCn2nc(CCC(=O)NC3CC3)cc2C1`, the “% Inhibition” value is on record as -11% and the Z score is reported as 1.56.
Take `Cc1cccc2nc(CN(C)C(=O)CCCn3cncn3)[nH]c12`: the “% Inhibition” value came out at 8% and the Z score is reported as -1.51.
In the case of `Cc1ccc(C)c([C@H](C)N(C)C(=O)c2ccc3cnccc3n2)c1`, the “% Inhibition” value is given as -9% and the Z score is recorded as 1.29.
Take `O=C1CCCN1CCCN1C(=O)[C@H]2CN(Cc3ccc(Br)cc3)C[C@H]2C1=O`: the “% Inhibition” value is -7% and the Z score came out at 0.88.
`CCCNC(=O)C1CCN(c2c(C(=O)N3CCCC3)cnc3snc(C)c23)CC1`: the “% Inhibition” value is -10% and the Z score was determined as 1.47.
As to `CCOc1cc([C@H]2Nc3ccccc3C(=O)N2c2ccccc2)ccc1OCc1ccccc1Cl`, the “% Inhibition” value is listed as 5% and the Z score is -0.57.
As for `COc1ccc([C@H]2C[C@@H](c3cccc(Br)c3)Nc3ncnn32)cc1`, the “% Inhibition” value is 5% and the Z score was -0.76.
In the case of `CC[C@H](C)Cc1nc(CNC2CC2)n(CCO)n1`, the “% Inhibition” value amounted to 3% and the Z score is reported as -0.45.
`CCc1ncnc(N[C@@H]2CNc3c(c(C)nn3C)C2)c1F`: the “% Inhibition” value was -3% and the Z score is listed as 0.61.
For `CN(CCCNC(=O)C1CCC1)C(=O)c1cccc2cc[nH]c12`, the “% Inhibition” value amounted to 7% and the Z score is given as -1.09.
Consider `CC(C)(C)OC(=O)N1CCCNc2ccccc21`, for which the “% Inhibition” value is 1% and the Z score is recorded as -0.28.
The corresponding values for `CCn1nc(C)c(Nc2nc(C)nc3c2cnn3C(C)(C)C)c1C` are -8% and 1.34.
Consider `COCCN(CC1CN(Cc2ccc(C)cc2)CC1c1ccc(F)cc1)C(=O)C(C)C` (centres undefined), for which the “% Inhibition” value was -12% and the Z score is 1.38.
Regarding `O=C(OC1CCCC1)N1CCN(C2CC2)C[C@@H]1Cc1ccccc1`, the “% Inhibition” value is recorded as -8% and the Z score is 1.18.
For the molecule `CNC(=O)CCc1ccc(Br)c(C)c1`, the “% Inhibition” value was -6% and the Z score worked out at 0.65.
For `Cc1cc(Cl)ccc1NC(=O)N[C@H]1C[C@H]2C(=O)N3CCC[C@@H]3C(=O)N2C1`, the “% Inhibition” value is reported as -19% and the Z score was determined as 2.26.
Take `C[C@@H](CCc1ccccc1)NC(=O)c1ccc2c(c1)OCO2`: the “% Inhibition” value was found to be 7% and the Z score was -0.99.
The corresponding values for `Cn1ncc2cc(NC(=O)N3CCC4(CC3)c3ccccc3C[C@@H]4O)ccc21` are -10% and 1.39.
For the molecule `C=CCN(C(=O)NCCN1CCOCC1)C1CC1`, the “% Inhibition” value is -3% and the Z score came out at 0.3.
Turning to `COc1cc2c(cc1OC)CN(C(=O)[C@@H]1Cc3ccccc3O1)CC2`, the “% Inhibition” value is -7% and the Z score is on record as 0.91.
The corresponding values for `Cc1cnc(C)c(N2CCC[C@]3(CCC(=O)N(C(C)C)C3)C2)n1` are -5% and 0.61.
For the molecule `CC(=O)c1ccccc1NC(=O)C(C)N1CCCC(N2CCCC2)C1` (centres undefined), the “% Inhibition” value is -8% and the Z score was found to be 1.57.
With `Cc1ccc2c(c1)CCCN2C(=O)c1cc(F)c[nH]1`, the “% Inhibition” value is recorded as -7% and the Z score was determined as 1.23.
The corresponding values for `CN(C)c1ccnc(CNC(=O)c2cnccn2)n1` are -2% and 0.26.
The corresponding values for `CC(C)(C)c1nc(C(=O)N2CCNC[C@H]2C(F)F)co1` are -5% and 0.58.

Values taken from ChEMBL document CHEMBL4888484, “Replenishing the malaria drug discovery pipeline: Screening and hit evaluation of the MMV Hit Generation Library 1 (HGL1) against asexual blood stage Plasmodium falciparum ,using a nano luciferase reporter read-out” (2022).
